Assay results published in the supplement of paper PMC7826260.
Some of the results follow. Each Rep nickase domain was tested in vitro on the same pool of single strands (3 µM enzyme, 1 h, 37 °C); shown is the middle of each 90-letter strand. A value is the log2 ratio of uncut reads to the pool without enzyme; strong cutting gives strongly negative numbers. There is no active / inactive call. Counts are relative to all reads; values above 0 arise when much of the pool is cut.

system: T1, Rep nickase domain of tomato golden mosaic virus; experiment: uncleaved DNA left, log2 of reads against the no-enzyme library (log2 ratio); higher = less cleavage (more negative = more Rep cleavage of the k-mer); sequences stand for … in CTCGTCCG…ACCGGAGA
T1 sequence (residues 1-124 of Rep, tag left off): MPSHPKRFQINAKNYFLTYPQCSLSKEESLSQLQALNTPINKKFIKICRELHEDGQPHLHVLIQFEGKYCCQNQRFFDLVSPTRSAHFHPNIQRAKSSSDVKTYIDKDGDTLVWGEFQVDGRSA
Description: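 A pool of 90-nt single-stranded DNAs with seven random bases just before the constant AC of the nick site (name = the seven bases) was cut by 3 µM recombinant His6-SUMO-tagged Rep nickase domain (300 nM DNA, 50 mM HEPES pH 8.0, 50 mM NaCl, 1 mM MnCl2, 1 h, 37 °C, three replicates). Uncut DNA was amplified and sequenced.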

Sequence	uncleaved DNA left (log2)
TAACAGT	-0.309
GCCAGAG	0.148
TCCGGCT	-0.0443
GAACCTA	-0.129
GGCCGGA	0.0957
TATAACA	-0.00157
TTGAATA	0.0291
ACACAGC	-0.0176
GCGGTCG	0.11
AGTTGAG	0.0272
GATGTAT	0.0467
GCAAGTT	0.0938
AACGCGG	-0.00576
CTGTACG	0.0214
CCCGAGC	0.324
TACGCGG	0.0323
CCTAGAA	0.0967
GACCTGG	0.14
TGGGATG	0.114
CTGACTT	0.043

Sequence	uncleaved DNA left (log2)
CCATCGC	-0.0374
TTCGTTT	-0.0103
AAGGATA	0.0705
CGCGTCT	-0.156
ATCAATC	0.092
GTTAGCG	0.0607
AAAGAAC	0.0495
GTGTATG	0.305
TGTGAAG	0.0355
AATAGCA	-0.0683
CCACGTT	-0.0556
CGACCTC	-0.012
AGACCTC	0.0882
CTAAGGA	0.0369
CAGGTGC	-0.0387
CTCATAG	0.174
GACGCAG	0.0469
CTACTAA	-0.133
GTTAGGT	0.074
AGAATCT	0.121
